Laboratory results as given in the BET-seq Pho4 binding data (Le et al. 2018).
The list shows a part of the results. These are noisy estimates, calculated here from bound and input reads.

The sequences below were run against T1, Pho4 (S. cerevisiae) (UniProt P07270) (assay: relative binding free energy (BET-seq); higher = weaker binding). Settings: reference: library average.
T1 sequence: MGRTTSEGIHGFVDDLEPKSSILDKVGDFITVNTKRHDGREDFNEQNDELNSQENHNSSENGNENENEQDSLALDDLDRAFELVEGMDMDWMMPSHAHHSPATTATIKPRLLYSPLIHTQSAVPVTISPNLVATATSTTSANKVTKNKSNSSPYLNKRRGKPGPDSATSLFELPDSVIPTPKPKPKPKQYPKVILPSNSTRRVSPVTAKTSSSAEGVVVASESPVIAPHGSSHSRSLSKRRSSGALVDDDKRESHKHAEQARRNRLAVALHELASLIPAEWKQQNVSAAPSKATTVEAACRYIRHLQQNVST

| Sequence | relative binding free energy |
| --- | --- |
| GGGATCACGTGATATA | 1.55 kJ/mol |
| CGTTACACGTGAGCGG | 1.13 kJ/mol |
| AACGTCACGTGTTGGA | 0.92 kJ/mol |
| GATTGCACGTGATGTA | 1 kJ/mol |
| TTGTTCACGTGTTGCC | 1.46 kJ/mol |
| GCGTGCACGTGGTTTG | -0.293 kJ/mol |
| GAGGGCACGTGTGGCT | -0.0418 kJ/mol |
| GTAGACACGTGTTGTT | 0.126 kJ/mol |
| GCTCTCACGTGGTTTG | 1.3 kJ/mol |
| GGTTTCACGTGACATT | 1.63 kJ/mol |
| TAGTGCACGTGCGGTG | -0.126 kJ/mol |
| AATATCACGTGGTTAT | 0.0837 kJ/mol |
| TGTTGCACGTGAGGAT | 0.92 kJ/mol |
| TTGATCACGTGGTGCT | 0.335 kJ/mol |
| TGTATCACGTGAGGGC | 1.21 kJ/mol |
| CGGTTCACGTGGTTTA | 0.92 kJ/mol |
| ATGTACACGTGTGAAT | 0.167 kJ/mol |
| GAATGCACGTGGTTGT | 0.167 kJ/mol |
| TGTGGCACGTGGATCA | -0.586 kJ/mol |
| TAAGCCACGTGGGTGG | -1.38 kJ/mol |

| Sequence | relative binding free energy |
| --- | --- |
| TGCGGCACGTGAAGAG | 0.711 kJ/mol |
| GTCTACACGTGGGCTG | 0.167 kJ/mol |
| CGCGGCACGTGGGCAG | -1.38 kJ/mol |
| GTTTCCACGTGGCTGT | 0.126 kJ/mol |
| GTGAGCACGTGTAGGG | -0.46 kJ/mol |
| CTGGTCACGTGGCGGG | 0.0418 kJ/mol |
| AGAGGCACGTGGTTGG | -0.669 kJ/mol |
| GCGTTCACGTGACGGT | 1.92 kJ/mol |
| ATTGGCACGTGAGCTT | -0.167 kJ/mol |
| TATTTCACGTGAGAAT | 1.26 kJ/mol |
| TAATGCACGTGTGCTT | -0.0837 kJ/mol |
| TCGGGCACGTGGTCTA | -0.711 kJ/mol |
| CTAGTCACGTGTAGGT | 0.46 kJ/mol |
| GGGAACACGTGGATAT | 0.711 kJ/mol |
| TAGGGCACGTGGGGCA | -0.711 kJ/mol |
| TTACTCACGTGGCTGT | 0.209 kJ/mol |
| AATATCACGTGTAGGA | 0.0418 kJ/mol |
| TCTCGCACGTGAGTGA | 1.17 kJ/mol |
| TTTAACACGTGTCGAT | 0.167 kJ/mol |
| GCGTGCACGTGTGTGA | -0.251 kJ/mol |

| Sequence | relative binding free energy |
| --- | --- |
| GATAGCACGTGGGTTA | -0.962 kJ/mol |
| GGAGGCACGTGCCGGT | -0.92 kJ/mol |
| GATAACACGTGGTTGA | 0.0837 kJ/mol |
| TATCGCACGTGTTGAT | -0.628 kJ/mol |
| CTTATCACGTGGTTGT | 0.502 kJ/mol |
| GGAGACACGTGTAGGG | 0 kJ/mol |
| ATAGCCACGTGTTATG | -0.209 kJ/mol |
| AATGCCACGTGTATGG | -0.0837 kJ/mol |
| AGAGTCACGTGAATGT | 1.51 kJ/mol |
| AAATGCACGTGAATTG | 0.753 kJ/mol |
| TCGTACACGTGGGCGT | -0.418 kJ/mol |
| TAAGTCACGTGTGTAT | 1.09 kJ/mol |
| TGTTGCACGTGGAGGC | -0.0418 kJ/mol |
| GGTTGCACGTGTGAAT | 0.879 kJ/mol |
| TTTTACACGTGATTCT | 0.418 kJ/mol |
| CTGGTCACGTGTAATT | 0.711 kJ/mol |
| TTTGGCACGTGCTTCA | -0.418 kJ/mol |
| GGCGGCACGTGTTCGA | 0.209 kJ/mol |
